Results taken from PubChem BioAssay AID624296 (National Center for Advancing Translational Sciences (NCATS), 2012).
The whole screen tested about 350,000 compounds, of which about 9,900 (2.8%) were called active. Inconclusive means that the source gave no clear call. Such entries were picked first, then a sample of the others. Calls come from the whole dose curve; as a rule, active = well fitted activation curve with a large enough effect; inconclusive = small, poorly fitted or top-dose-only effect; inactive = no such curve, though single readings can be large or run the other way. Potencies of inconclusive entries are left out as doubtful fits.

Experiment: A quantitative high throughput screen for small molecules that induce DNA re-replication in MCF 10a normal breast cells. For activity, positive = re-replication: % of control where 0% means no effect. Note: nearly all actives have a fitted effect of over 50% in size.
Settings: MCF 10A DNA re-replication, Hoechst nuclear intensity, 48 h; activity, positive = re-replication: at 46.1 µM (top of the series)
Potency is the fitted concentration of half-maximal effect; tags give direction and shape of the fitted curve.

Structure (SMILES) | Potency | activity, positive = re-replication
COc1ccc(CCNC(=O)C(=O)NCCCN2CCOCC2)cc1 | inconclusive [activator, single point] | –
CC1(C)Cc2cccc(OCC(=O)OCc3nnc(-c4ccc([N+](=O)[O-])cc4)o3)c2O1 | inactive | –
COc1ccc(C(=O)NC(C)c2nc3ccccc3n2C)cc1OC (configuration not stated) | inactive | –
CC1CC(=S)Nc2ccccc2N1Cc1ccccc1 (configuration not stated) | inconclusive [activator, partial curve, poor fit] | –
CCOC(=O)C1CCCN(C(=O)CSc2ccc(Br)cc2)C1 (configuration not stated) | inconclusive [activator, single point] | –
O=S(=O)(Nc1ccc(O)c(Sc2nc3ccccc3s2)c1)c1cccc2ccccc12 | inconclusive [activator, single point] | –
CCOc1cccc(OCCCOc2cccc3cccnc23)c1 | inconclusive [activator, full curve, poor fit] | –
CC(=O)NC(c1cccs1)c1cc(Cl)c2ccccc2c1O (configuration not stated) | inconclusive [activator, full curve, poor fit] | –
COc1ccc(S(=O)(=O)Oc2ccc3ccccc3c2)cc1 | inconclusive [activator, single point] | –
COc1ccc(-n2c(COc3ccc(C)cc3)n[nH]c2=S)cc1 | inactive | –
CCOC(=O)N1CCN(/C=C(\C#N)c2nc3ccccc3s2)CC1 | inconclusive [activator, single point] | –
O=C1C(C2=NC(c3ccccn3)C3C(=O)N(c4ccc(OC(F)(F)F)cc4)C(=O)C23)=C(O)c2ccccc21 (configuration not stated) | inconclusive [activator, full curve] | –
O=C(CCSc1ccc(Cl)cc1)N1CCN(c2ncccn2)CC1 | inactive | –
COc1cccc2sc3cc(C#CC4(O)CCCCC4)ccc3c(=O)c12 | inconclusive [activator, single point] | –
COC(=O)/C(C#N)=C/c1ccc(-c2ccc(S(N)(=O)=O)cc2)o1 | inactive | –
COc1ccccc1OCCOCCOc1ccc(C)cc1[N+](=O)[O-] | inactive | –
CN(Cc1ccccc1)C(=O)c1ccc(NC(=O)C2CCN(C(=O)OC(C)(C)C)CC2)cc1 | inactive | –
CN(C)CCNc1ncnc2c1sc1nc(N3CCCC3)c3c(c12)CC(C)(C)OC3 | inconclusive [activator, partial curve, poor fit] | –
Cc1cccc2nc(-c3cccc(NC(=O)c4ccc(Cl)cc4)c3)cn12 | inconclusive [activator, single point] | –
O=C(/C=C/c1cccs1)N1CCC2(CC1)Oc1ccc(Cl)cc1C(=O)C21CC(c2cccnc2)=NO1 (configuration not stated) | inconclusive [activator, single point] | –
CN1CCN(CCc2nc3cc(NC(=O)c4ccco4)ccc3n2C)CC1 | inconclusive [activator, partial curve, poor fit] | –
COc1cc(/C=C2\C(=N)N3N=C(S(C)(=O)=O)SC3=NC2=O)ccc1OCCOc1ccc(C)cc1 | inconclusive [activator, single point] | –
Cc1nc2ncnn2c(C)c1CCC(=O)NCc1ccco1 | inconclusive [activator, partial curve, poor fit] | –
COc1ccccc1NC(=O)C1CCOC1=O (configuration not stated) | inconclusive [activator, single point] | –

Structure (SMILES) | Potency | activity, positive = re-replication
Cc1cc(C)n(-c2ccc(C(=O)OCC(=O)Nc3ccc(Cl)cc3[N+](=O)[O-])cc2)n1 | inconclusive [activator, single point] | –
Cc1ccc(S(=O)(=O)N(C)C[C@@H]2Oc3ccc(NC(=O)CCC(F)(F)F)cc3CC(=O)N([C@@H](C)CO)C[C@@H]2C)cc1 | active: 3.66 µM | –
O=C(/C=C/c1ccccc1)COC(=O)c1ccccc1 | inconclusive [activator, single point] | –
Cc1ccc(S(=O)(=O)N(CC2CO2)c2cccc([N+](=O)[O-])c2)cc1 (configuration not stated) | inconclusive [activator, single point] | –
Cc1ccc(/C=N\NC(=O)C2CN(S(=O)(=O)c3ccccc3)CCN2S(=O)(=O)c2ccccc2)cc1 (configuration not stated) | inactive | –
Fc1cccc(Nc2ncnc3[nH]ncc23)c1 | active: 4.11 µM | –
O=C(Oc1ccc(-c2cnc3ccccc3n2)cc1)c1cc([N+](=O)[O-])ccc1Cl | inconclusive [activator, single point] | –
CCOC(=O)C1=C(N)Oc2cc(O)ccc2C1c1cccnc1 (configuration not stated) | – | inactive: -181% [at 0.0737 µM]
COCCNC(=O)c1ccc2c(c1)nc(C)n2-c1cccc(F)c1 | inactive | –
CC(NC(=O)CN(c1cccc(C(F)(F)F)c1)S(=O)(=O)c1ccc(Cl)c([N+](=O)[O-])c1)c1ccccc1 (configuration not stated) | inconclusive [activator, full curve] | –
Cc1cccn2c(/C=N/OCc3cccc(F)c3)c(-c3ccc(Cl)cc3)nc12 | inconclusive [activator, single point] | –
CCCCCCCCCCOC(=O)C[N+](C)(C)C/C=C(/C)Cl | active: 23.1 µM | –
CCCn1nc(C(=O)Nc2ccc(-n3cnnn3)cc2)c2ccccc2c1=O | inactive | –
Cc1ccc2[nH]c(=O)c(C(c3nnnn3C3CCCC3)N(Cc3cccnc3)Cc3ccco3)cc2c1 (configuration not stated) | inconclusive [activator, partial curve, poor fit] | –
Cc1cc(C)n(-c2n[nH]c(=O)c3ccccc23)n1 | inactive | –
CCC(=O)Nc1c(C#N)c2nc3ccccc3nc2n1C1CCCCC1 | inconclusive [activator, partial curve, poor fit] | –
CCC1=Nc2cc(C(=O)NCCCOC)ccc2Sc2ccccc21 | – | inconclusive: 124% [activator]
CCOc1ccc(NC(=O)Nc2cccs2)cc1 | inactive | –
O=C(c1cccc(F)c1)N1CCN(Cc2ccc3c(c2)OCO3)CC1 | inactive | –
COc1ccc(-c2nnc(SCc3ccc(C(=O)O)cc3)n2C)cc1OC | inactive | –
Nc1nc(=S)c2ncn(C3OC(CO)CC3O)c2[nH]1 (configuration not stated) | inconclusive [activator, single point] | –
COc1cc(OC)c(/C=N/NC(=O)c2ccncc2)c(OC)c1 | inactive | –
Nc1nc(-c2ccc(Cl)cc2)nnc1-c1ccc(Br)cc1 | inactive | –
O=C(NNC(=O)c1ccccc1Br)c1ccc(Cl)cc1 | inconclusive [activator, single point] | –

Structure (SMILES) | Potency | activity, positive = re-replication
CCN(C(=O)COC(=O)c1ccccc1NCCO)c1cccc2ccccc12 | inconclusive [activator, single point] | –
CC(C)(C)SCCNC(=O)COc1ccc(Cl)cc1 | inconclusive [activator, partial curve, poor fit] | –
S=C(NCCc1ccccc1)Nc1c(Cl)cccc1Cl | inconclusive [activator, single point] | –
COc1ccc2c(C)cc(SCc3c(C)noc3C)nc2c1 | active: 11.6 µM | –
Cc1cc(C(=O)Cn2ncc(Cl)c(Cl)c2=O)c(C)n1CC(F)(F)F | active: 2.59 µM | –
C=C(C(=O)c1ccccc1)C(CC(=O)c1ccccc1)c1ccccc1 (configuration not stated) | active: 9.2 µM | –
CC(=O)c1cccc(Nc2c3c(nc4ccccc24)CCC3)c1 | inconclusive [activator, single point] | –
CCCn1c(NC(=O)c2ccccc2Br)nc2ccccc21 | inconclusive [activator, single point] | –
CC(C)Cn1c(SCC(=O)N2CC(=O)Nc3ccccc32)nc2ccccc21 | inactive | –
COc1ccc(C=O)cc1COc1ccccc1F | inactive | –
CCOc1ccc(S(=O)(=O)N2CCCC(C(=O)Nc3cc(C)cc(C)c3)C2)cc1 (configuration not stated) | inconclusive [activator, full curve] | –
O=C(Nc1cc(S(=O)(=O)Nc2ccc(Cl)cc2)ccc1O)c1ccc(S(=O)(=O)N2CCCCCC2)cc1 | inconclusive [activator, single point] | –
Cc1ccc(-c2cc(C(=O)NCc3ccccn3)c3ccccc3n2)cc1C | active: 5.8 µM | –
Cc1ccc(CN2CC(C(=O)Nc3nnc(SCc4c(Cl)cccc4Cl)s3)CC2=O)cc1 (configuration not stated) | inconclusive [activator, single point] | –
COC(=O)c1ccc(/C=C2\Oc3ccccc3NC2=O)cc1 | active: 6.51 µM | –
COC(=O)C(Nc1ccccc1Cl)(c1cc(C)c(O)c(C)c1)C(F)(F)F (configuration not stated) | inconclusive [activator, single point] | –
O=C(COc1cccc(F)c1)Nc1nc(-c2cccnc2)cs1 | inactive | –
COc1ccc(-n2c3c(c(=O)[nH]c2=O)C(NC(C)=O)(C(F)(F)F)C(=O)N3)cc1 (configuration not stated) | inactive | –
C/C(=N\NC(=O)C1(C)CC1(Br)Br)c1cccc(NC(=O)c2ccc(C)o2)c1 (configuration not stated) | inactive | –
O=C(Nc1ccc(F)cc1)Nc1nnc(COc2ccccc2F)s1 | inconclusive [activator, single point] | –
CCCc1ccc(Oc2cc(NN3CCCCC3)c([N+](=O)[O-])cc2[N+](=O)[O-])cc1 | inconclusive [activator, single point] | –
COc1nc(N)nc(NC(=O)c2cccs2)c1N=O | active: 20.6 µM | –
C=CCN1C(=O)c2ccc(C(=O)OCC(=O)Nc3ccc(S(N)(=O)=O)cc3)cc2C1=O | inconclusive [activator, partial curve] | –
CC(C)(C)NC(=O)C1Cc2ccccc2CN1C(=O)Nc1cccc(Cl)c1 (configuration not stated) | inconclusive [activator, partial curve, poor fit] | –
